This note sets out measurements from PMC12136788.

The chains are these.
T1: UNK ZnF1-3 (human, UniProt Q9C0B0 31-174)
T1 sequence: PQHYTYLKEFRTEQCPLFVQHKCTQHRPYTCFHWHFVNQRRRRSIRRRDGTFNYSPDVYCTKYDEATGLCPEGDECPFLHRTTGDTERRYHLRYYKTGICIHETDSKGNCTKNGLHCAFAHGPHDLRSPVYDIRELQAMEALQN

B1: chr2:155494191:155494192:-_ENSMUSG00000038324_ENSMUST00000041059|mus_hu|FALSE|FALSE (ssRNA)
RNA: GGGAGUUCUACAGUCCGACGAUCUUCAUCACUUAUUUUCAGUUUCUGUCCCCGGAUAGAGAUCGUAGGCCUCAUAAGAAUUUCUACAAGAAGAUCAACACCUCCAAACAAGUCAAAAAUGUAAGUAUUUGGAUAAGUGGUUUCCAACAGAGGAUUGAGCAUCA
B2: 183121975_183127770_906_CDS_ENSMUSG00000038733_ENSMUST00000162963|mouse|control|control (ssRNA)
RNA: GGGAGUUCUACAGUCCGACGAUCCACUUCAUUACAAUGCUCUGUAAGUAUCUGUUGAGUGUAACAGGGAAACUGCCUCCUACUACAAACAUGAUCUAUAAGUAGAGACACAGAAUCUAGAUUAUUGUCAAGUUUGGUAUUGUGCAACAGAGGAUUGAGCAUCA
B3: chr1:225611761:225611762:-_ENSG00000143815_ENST00000272163|hu_mus|hu_hu_hu_mus_True|18_98 (ssRNA)
RNA: GGGAGUUCUACAGUCCGACGAUCCCAGGCCAUCGGCCUCUUACCACUUCACCCUCAACAAACUUCCUACUUGGCAUUUUCUAAAAUUAGUCUGGCCGCGCUCCGGCGGGAACUCCAGACGGCUCCCGACAGUCACCAGCAGCCCAACAGAGGAUUGAGCAUCA
B4: chr8:81863377:81863378:-_ENSMUSG00000031681_ENSMUST00000066091|mus_mus|motif|central (ssRNA)
RNA: GGGAGUUCUACAGUCCGACGAUCAGCAUUUUAGUUGAUUUUUACAACAGAAUGUCACAAUGUAAACUGAAAGGGUUCUUGCGGUCAACCAAGGCUUGUCAGUUUCUCAAUCCAAUAGUUGGUCACAGAGGUCAAGUAUUAUCGCAACAGAGGAUUGAGCAUCA
B5: chr1:231410971:231410972:+_ENSG00000116906_ENST00000366647|hu_mus|FALSE|FALSE (ssRNA)
RNA: GGGAGUUCUACAGUCCGACGAUCCAAAAGGUAUCUGCAAAGUAACUGAUAUGAUUCCACAAAAGGCUUAAAGAGGCUUGUGAGGAACUGUAACACAGCAGUUCCUUUGUCUGUGAGGAUGAUGUCCUUCCCAGCCAUCUGCAUCAACAGAGGAUUGAGCAUCA
B6: chr12:3048583:3048584:+_ENSG00000078246_ENST00000448120|hu_hu|motif|central (ssRNA)
RNA: GGGAGUUCUACAGUCCGACGAUCGGGAGAAGGGCUCCCUGCCUGACUGUUCUCUCAUUCACACGCCAGCUUACUGUCAAAGCGGGAAAGACCGAUGCCAAAGGCCUGUACUGCACAAAGUGGGUAGUUGUAAUCCAGUGUGAACAACAGAGGAUUGAGCAUCA
B7: 69237116_69237236_5343_3pUTR_ENSG00000135679_ENST00000462284|human|control|control (ssRNA)
RNA: GGGAGUUCUACAGUCCGACGAUCAUACAUAAUUGUAAAUAUGGUGUAUGUACUGUUUCACAUACAAUGGGUAUUGAUCAAAUCAGUGUAAUUAGCACACCCAUCAGCUCAAAUAUCAUUUAUUUGUAGCAAGAACAUUCAAUACAACAGAGGAUUGAGCAUCA
B8: 37496388_37496508_563_CDS_ENSMUSG00000026915_ENSMUST00000072186|mouse|control|control (ssRNA)
RNA: GGGAGUUCUACAGUCCGACGAUCGUUAUCUUUAACUGUAUUUAACAGGGUUUCCGUGGGUUUGUCUUUGCACAUUAAGACUAGCUCCAGGUCCAUAUCAUCUUUAAUCAGCAAGCCUUUUGCAACCAAGCCAAUCCUCAUUACCAACAGAGGAUUGAGCAUCA
B9: chr9:14812383:14812384:-_ENSMUSG00000031934_ENSMUST00000164273|mus_mus|mus_mus_mus_hu_True|38_68 (ssRNA)
RNA: GGGAGUUCUACAGUCCGACGAUCAUAGCCCAGGUAGAUACACGCUAACAGUAUAAUGAUGAGUGUCACCAGCCGGCAGCUAAUGUACUUGAUGAUUAAAUGACUAGAAUUUUUCUUUGUCUUCAAGUACUGCUCCACAAUUGGCAACAGAGGAUUGAGCAUCA
B10: chr7:139256351:139256352:-_ENSG00000064393_ENST00000406875|hu_hu|motif|central (ssRNA)
RNA: GGGAGUUCUACAGUCCGACGAUCUCUUUCGAGAUCCACGGACUCUCUCCUAGCUCCUGCUGGCUUCCCUGGCAUCCUUCCGCGGGCAAACAGCCCAGGAAAGACAACGGGCAUUAACAUUUUAAAAAGAAAAAGAAAAAGAAACAACAGAGGAUUGAGCAUCA
B11: chr7:31307748:31307749:-_ENSMUSG00000036882_ENSMUST00000044338|mus_mus|FALSE|FALSE (ssRNA)
RNA: GGGAGUUCUACAGUCCGACGAUCUCUGUACAAGGAUCCUCGGACCUCCCCUCCCCUCCCAUAGGAUGGUGGAGCUGGCCUAUAGAGCAGAAAAGGUUCGGGGGAACCCCAAGGUCCAGGCACCCGAUGGGGAGUAUGUGGACCCAACAGAGGAUUGAGCAUCA
B12: chr6:106732989:106732990:-_ENSMUSG00000005362_ENSMUST00000049675|mus_hu|FALSE|FALSE (ssRNA)
RNA: GGGAGUUCUACAGUCCGACGAUCACUGCCAAUUUUAAGGAGCUGAAUUCUCAAUACAUCAUCAAUAGGAAGACAAGCAGCUACUCUGUAAGAAAAAUCUAUUGGAUUUGAAGGAAGAGAAUCAUCUUUUAGAUUUUCAUCCCACAACAGAGGAUUGAGCAUCA
B13: chr18:35748043:35748044:+_ENSMUSG00000037236_ENSMUST00000166793|perfect_dup|motif|central (ssRNA)
RNA: GGGAGUUCUACAGUCCGACGAUCUGUAUAAAAGAGUGAACACAGCUUACAGUAAAACCCUGUUUUAGGUAUCACAUAGUCGGUACCAACAGGAACAUUAGGCUGAUAUGGUCCGAUUCUAUACUCAUCGGGAAUUGUAUAAUCCAACAGAGGAUUGAGCAUCA
B14: chr1:135034296:135034297:+_ENSMUSG00000046062_ENSMUST00000052529|mus_mus|FALSE|FALSE (ssRNA)
RNA: GGGAGUUCUACAGUCCGACGAUCCAAUCCCCUACCUCAAAAUAUAACAGACAUAAAAACAUACAAAAACAAAACCCAUAAAGCCCAUUAAUUUUAGAACAGAAAAAGCACACAAGAACUCAAUGCAUGCAUAAUUUGAGUUAGCAACAGAGGAUUGAGCAUCA

This is one part of the list.

The experiment has as its target T1, UNK ZnF1-3. As to the kind of experiment: nsRBNS (natural sequence RNA bind-n-seq); RBNS binding buffer (assumed for nsRBNS): 25 mM Tris pH 7.5, 150 mM KCl, 3 mM MgCl2, 0.01% Triton X-100, 500 ug/ml BSA, 20 U/ml SUPERase-In, 4 C; UNK is unkempt and MSI1 is Musashi-1; names of the RNAs are library labels; protein concentration not given here; high values mean tight binding.
Molecule B1 gave a binding signal of 0.956 enrichment R.
The value for B2 was 0.832 enrichment R.
The value for B3 was 1.32 enrichment R; that for B4 was 1.83 enrichment R.
Take B5: the binding signal came out at 0.626 enrichment R.
The value for B6 was 1.5 enrichment R; that for B7 was 0.79 enrichment R.
B8 gave a binding signal of 0.663 enrichment R.
The value for B9 was 1.12 enrichment R; that for B10 was 2.1 enrichment R.
The value for B11 was 0.935 enrichment R; that for B12 was 1.12 enrichment R; that for B13 was 0.49 enrichment R.
The value for B14 was 2.92 enrichment R.
